Consider three compounds from US6992079B2, “Substituted 11-phenyl-dibenzazepine compounds useful for the treatment or prevention of diseases characterized by abnormal cell proliferation” (President Fellows of Harvard College, priority 1997, dated 2006).

Where two headings read alike, the source gives them in different places. Bounds are passed on as bounds.

This experiment has as its system NCI-H322M. To be noted: for GI50 / CC50: Homo sapiens; for CC50: read-out: LC50 (the source's name). On the procedure: Exemplary compounds 28, 30 and 31 have been screened, using sulforhodamine B (SRB) assay to screen the antiproliferative effects of the compounds against a panel of human cancer cells. The panel comprises 60 human cancer cell lines. The data obtained in his study was evaluated using the COMPARE algorithm.
The measured effect of the compound on a cell line is currently calculated according to one or the other of the following two expressions: If (Mean ODtest−Mean ODtzero)≧0, then PG=100×(Mean ODtest−Mean ODtzero)/(Mean ODctrl−Mean ODtzero) If (Mean ODtest−Mean ODtzero)<0, then PG=100×(Mean ODtest−Mean ODtzero)/Mean ODtzero Where; • Mean ODtzero=The average of optical density measurements SRB-derived color just before exposure of cells to the test compound. • Mean ODtest=The average of optical density measurement of SRB-derived color after 48 hours exposure of cells to the test compound. • Mean ODctrl=The average of optical density measurements of SRB-derived color after 48 hours with no exposure of cells to the test compound. The Data Sheet:
This page of the data package presents the experimental data collected against each cell line. The first two columns describe the subpanel (e.g. leukemia) and cell line (e.g. CCRF-CEM) involved. The next two columns list the Mean ODtzero and Mean ODctrl the next five columns list the Mean ODtest for each of five different concentrations. Each concentration is expressed as the log10 (molar or μg/ml). The next five columns list the calculated PGs for each concentration. The response parameters GI50, TGI, and LC50 are interpolated values representing the concentrations at which the PG is +50.0, and −50, respectively. Sometimes these response parameters cannot be obtained by interpolation. If, for instance, all of the PGs in a given row exceed +50, then none of the three parameters can be obtained by interpolation. In such a case, the value given for each response parameter is the highest concentration tested and is preceded by a “>” sign. This practice is extended similarly to the other possible situations where a response parameter cannot be obtained by interpolation.

One may read the GI50 as the concentration that inhibits growth by half. A high value points to lower sensitivity of the cells. `O=C(c1ccc([N+](=O)[O-])cc1)N1Cc2ccccc2C(c2ccccc2Cl)c2ccccc21` (stereo not drawn) [Compound 28, N-(4′-Nitrobenzoyl)-11-(2′-chlorophenyl)-5,6-dihydro-11H-dibenz[b,e]azepine] returned a TGI (48 h) of more than 1.00E−04 Molar. This compound displayed a GI50 (48 h) of 0.669 µM. For the same compound, the CC50 (48 h) was more than 100 µM. In addition, the “Percent Growth” value reads like this: (log10 conc −4.0 Molar, 48 h) 34%; (log10 conc −5.0 Molar, 48 h) 37%; (log10 conc −6.0 Molar, 48 h) 44%; (log10 conc −7.0 Molar, 48 h) 78%; (log10 conc −8.0 Molar, 48 h) 91%.
Take `COc1ccc2c(c1)CN(C(=O)c1ccc([N+](=O)[O-])cc1)c1ccc(Cl)cc1C2c1ccccc1Cl` (stereo not drawn) [Compound 30]: the TGI is on record as more than 1.00E−04 Molar, it took 3 µM to inhibit growth by half (GI50) and the CC50 is more than 100 µM. For the setting “Log10 concentration −4.0 Molar”, the “Percent Growth” value worked out at 26%. The “Percent Growth” value (Log10 concentration −5.0 Molar) stood at 31%. Further, the “Percent Growth” value (Log10 concentration −6.0 Molar) was 68%. In addition, the “Percent Growth” value (Log10 concentration −7.0 Molar) stood at 89%. Under “Log10 concentration −8.0 Molar”, the “Percent Growth” value was 90%.
Consider `COc1cccc2c1C(c1ccccc1Cl)c1cc(Cl)ccc1N(C(=O)c1ccc([N+](=O)[O-])cc1)C2` (stereo not drawn) [Compound 31], for which the TGI is given as more than 1.00E−04 Molar, it took 2.34 µM to inhibit growth by half (GI50) and the CC50 is more than 100 µM. Under “log10 conc -4 Molar”, the “Percent Growth” value is reported as 9%. In addition, under “log10 conc -5 Molar”, the “Percent Growth” value turned out to be 15%. Besides, the “Percent Growth” value (log10 conc -6 Molar) is on record as 71%. Also, the “Percent Growth” value (log10 conc -7 Molar) is recorded as 94%. The “Percent Growth” value (log10 conc -8 Molar) was 98%.
